# Experimental data published in PubChem BioAssay AID493035 (The Scripps Research Institute Molecular Screening Center, 2011).
# The campaign covered roughly 2,000 compounds. About 45 (2%) were called active.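 The calls were made as follows: active = inhibition above the mean of all tested compounds plus 3 SD (cut at about 49% in these data); inactive = the rest.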 Some of the results follow.
# Target: Perilipin-5 (Homo sapiens) + 1-acylglycerol-3-phosphate O-acyltransferase ABHD5 (Homo sapiens) (UniProt Q00G26+Q8WTS1)
# Sequence of UniProt Q00G26 (Q00G26 whole entry, looked up): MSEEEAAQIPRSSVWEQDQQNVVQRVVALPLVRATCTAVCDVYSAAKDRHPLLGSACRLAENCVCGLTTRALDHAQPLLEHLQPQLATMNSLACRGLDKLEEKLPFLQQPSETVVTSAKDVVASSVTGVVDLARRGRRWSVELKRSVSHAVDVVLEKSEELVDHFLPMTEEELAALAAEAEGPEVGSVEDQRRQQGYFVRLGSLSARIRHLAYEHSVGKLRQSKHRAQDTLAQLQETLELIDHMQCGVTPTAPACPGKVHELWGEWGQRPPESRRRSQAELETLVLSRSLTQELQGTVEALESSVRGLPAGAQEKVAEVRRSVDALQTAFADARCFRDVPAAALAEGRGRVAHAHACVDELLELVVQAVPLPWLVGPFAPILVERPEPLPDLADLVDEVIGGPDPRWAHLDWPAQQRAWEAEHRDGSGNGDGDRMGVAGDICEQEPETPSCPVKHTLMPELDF
# Sequence of UniProt Q00G26 (Q8WTS1 whole entry, looked up): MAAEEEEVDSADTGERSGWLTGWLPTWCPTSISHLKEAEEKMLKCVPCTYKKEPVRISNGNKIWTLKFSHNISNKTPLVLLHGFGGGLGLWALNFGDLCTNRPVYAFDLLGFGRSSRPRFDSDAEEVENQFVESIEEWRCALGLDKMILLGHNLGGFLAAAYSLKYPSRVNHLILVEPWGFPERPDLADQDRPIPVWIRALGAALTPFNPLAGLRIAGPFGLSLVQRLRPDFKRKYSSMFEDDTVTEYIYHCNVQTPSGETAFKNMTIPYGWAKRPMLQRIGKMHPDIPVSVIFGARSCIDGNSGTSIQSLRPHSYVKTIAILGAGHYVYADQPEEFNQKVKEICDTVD
# Assay: ABHD5-PLIN5 interaction inhibitors, pilot screen, cell lysate, split luciferase complementation, luminescence, NIH validation set (AID 493035);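 also: 0% = DMSO only wells while the 100% control is not stated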
# Conditions: split G. princeps luciferase complementation, lysates, 4 h; at 7.9 µM, hits give high values
row,Structure (SMILES),inhibition
1,CCOc1ccc(N2C(=O)CC(NCCNc3ccc([N+](=O)[O-])cn3)C2=O)cc1 (stereo not drawn),inactive: -3.04%
2,Cc1oc(/C=N/NC(=O)CC2(C)OCCO2)cc1Br,inactive: 7.06%
3,Cn1c(=S)n(C)c2ccccc21,inactive: -2.37%
4,COc1ccc(C(C)=O)c2c1OCCO2,inactive: 1.55%
5,CCC(=O)c1ccc(O)cc1,inactive: -10.1%
6,C=CCC1(Cl)C(=O)C(Cl)=C(N2CCOCC2)C1(OC)OC (stereo not drawn),inactive: -2.17%
7,O=C1C=CC(=O)C(C2=C3C(=O)N(CCc4ccccc4)CC(=O)N3CCC2)=C1,active: 74.5%
8,C[C@]12C=CC(=O)C=C1CCC1C3CC[C@](O)(C(=O)CO)[C@@]3(C)CC3OC312 (stereo partly drawn),inactive: -8.77%
9,CCN1CCn2c3c(c4cc(Cl)ccc42)CCCC31 (stereo not drawn),inactive: -6.29%
10,COc1cc(OC)c(C(=O)CCCN2CCCC2)c(OC)c1,inactive: -2.15%
11,CCOC(=O)NN1C(=O)c2ccccc2NC1c1ccc(OC)c(OC)c1 (stereo not drawn),inactive: -2.95%
12,Cc1ccc2c(CC(=O)O)coc2c1,inactive: -6.46%
13,COc1cc2c(cc1OC)-c1cc(OCc3ccccc3Cl)nc(=O)n1CC2,inactive: 13.2%
14,COc1ccccc1N1CCN(CC(O)COc2cccc3ccccc23)CC1 (stereo not drawn),inactive: -14.1%
15,COc1ccc(NC(=S)N2CCN(CCN3C(=O)c4cccc5cccc(c45)C3=O)CC2)cc1,inactive: 11.9%
16,CN1CCC(=C2c3ccccc3CC(=O)c3sccc32)CC1,inactive: 0.17%
17,OC(CCCN1CCC(O)(c2ccc(Cl)cc2)CC1)c1ccc(F)cc1 (stereo not drawn),inactive: -4.39%
18,COC(=O)c1cc(-c2c(C)oc3cc(OC)ccc3c2=O)c(C)o1,inactive: -4.02%
19,O=C1CCCC(=O)C1=Cc1c[nH]c2ccccc12,inactive: -1.77%
20,CC(=O)O[C@H]1CSC[C@H]1NC(=O)c1ccccc1,inactive: -9.72%
21,C=C(C)c1nc2cc(OC)c(OC)cc2c(=O)o1,inactive: -8.54%
22,CC1=C/C(=N\N=C2\NC(=O)C(CC(=O)Nc3ccccc3F)S2)CC(C)(C)C1 (stereo not drawn),inactive: -1.54%
23,COc1ccc(C(=O)Nc2ncc3c(n2)CC(C)CC3=O)cc1 (stereo not drawn),inactive: -2.67%
24,CC(C)(S)[C@@H](N)C(=O)O,inactive: 1.85%
25,CC(=O)Oc1ccc2c(=O)c(Oc3ccccc3[N+](=O)[O-])coc2c1,inactive: 3.75%
26,Cc1cc(C)cc(Nc2nc3c([nH]2)c(=O)n(C)c(=O)n3C)c1,inactive: -2.83%
27,CN1CCCN=C1COC(=O)C(O)(c1ccccc1)C1CCCCC1 (stereo not drawn),inactive: -1.95%
28,CC(C)(C)C(=O)NCCCNc1ccc([N+](=O)[O-])cc1,inactive: -3.12%
